Test results taken from the supplement of paper PMC12217912.
The list shows a part of the results. Sequences were assembled here from the parent chain. Inactive controls read about 0.05.

B1: TEV protease; numbered along this chain (parent)
chain: MGESLFKGPRDYNPISSSICHLTNESDGHTTSLYGIGFGPFIITNKHLFRRNNGTLVVQSLHGVFKVKDTTTLQQHLVDGRDMIIIRMPKDFPPFPQKLKFREPQREERICLVTTNFQTKSMSSMVSDTSCTFPSGDGIFWKHWIQTKDGQCGSPLVSTRDGFIVGIHSASNFTNTNNYFTSVPKNFMELLTNQEAQQWVSGWRLNADSVLWGGHKVFMVKPEEPFQPVKEATQL

Variants of: B1
Assay: raw area under fraction-flipped curve 0-4 h after induction (AUC4h, not background-subtracted), DNA-recorder readout of cleavage of the substrate (dimensionless); higher = more cleavage of the substrate by the protease variant
Conditions: temperature: 34 °C; time window: 0-4 h after rhamnose induction
Method: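 In vivo DNA recorder in E. coli TOP10(DE3) ΔrhaA at 34 °C. Each TEVp single-site mutant (parent TEVp 0) is paired with a single-site variant of the 7-mer TEVs (canonical ENLYFQ|S). The substrate sits between flexible linkers in a Bxb1-sfGFP-TEVs-SsrA fusion, so cleavage stabilises Bxb1 and speeds flipping of a recombination array, read by NGS. The value is the raw area under the fraction-flipped curve over 0-4 h after rhamnose induction (AUC4h), with ≥20 reads per time point. It is not background-subtracted; inactive controls average about 0.047.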
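Note: Bxb1 expression induced with 0.2% (w/v) L-rhamnose at OD600 near 0.5, cultures sampled hourly, flipped fraction per protease–substrate barcode pair counted by paired-end Illumina sequencing.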

Variant	area with substrate ENLYFAS	area with substrate ENLYFCS	area with substrate ENLYFDS	area with substrate ENLYFES	area with substrate ENLYFFS	area with substrate ENLYFHS	area with substrate ENLYFIS	area with substrate ENLYFKS	area with substrate ENLYFMS	area with substrate ENLYFNS	area with substrate ENLYFPS	area with substrate ENLYFRS	area with substrate ENLYFTS	area with substrate ENLYFVS	area with substrate ENLYFWS	area with substrate ENLYFGS	area with substrate ENLYFLS	area with substrate ENLYFYS	area with substrate ENLYFSS
Q105M	0.058	0.0608	0.0413	0.0647	0.0829	0.0562	0.063	0.0653	0.0634	0.06	0.0524	0.0689	0.0619	0.0633	0.0461				
R106F	0.0519	0.0511	0.0819		0.0655	0.0564	0.0485		0.0645		0.0615	0.0668	0.0581	0.0625	0.0598	0.0697	0.055	0.057	
E107A	0.0561	0.0444	0.0644	0.0296	0.0528	0.0697	0.0566	0.0452		0.0741	0.0643	0.0723	0.0636	0.0536	0.0495		0.0677		0.053
E107W	0.0541	0.0557		0.066	0.0865	0.0688	0.0649	0.0558	0.0657		0.0672			0.0301	0.0673		0.0545		0.0863
E108T	0.0436	0.051	0.0578	0.0471	0.075		0.0534	0.0579	0.0647	0.0585	0.0451	0.058		0.0475	0.0434				0.018
C111Y	0.0563	0.0572	0.053	0.0675	0.0659	0.0674	0.0556	0.0622	0.077	0.0538	0.0609	0.0492	0.043	0.0393	0.0526		0.069	0.0588	0.0522
V113P	0.0608	0.0498	0.059	0.0592	0.0587		0.0488	0.0637	0.0609	0.0665	0.0586	0.044		0.0316	0.0545	0.0552	0.078		0.0605
T115N	0.0653		0.0564	0.0989					0.0477	0.0471	0.0676		0.0413	0.0639	0.0614			0.0681	
N116D	0.0539			0.0553	0.0688	0.0727	0.0629		0.0623		0.0588	0.0575			0.0555	0.0346	0.0601	0.0442	0.0609
N116Q	0.0517	0.0747	0.0677	0.0604	0.0712	0.0453	0.0541	0.0527	0.0614		0.0557	0.0636			0.0446	0.0641			0.0509
Q118T	0.0652					0.0491	0.0621		0.0497	0.0571			0.0468						
M122E	0.0616			0.0754	0.0732		0.0398	0.0666	0.0703	0.0726	0.068	0.0492	0.0627	0.0538	0.0566			0.0525	
S123A	0.0603		0.0469	0.057	0.0511	0.0365	0.0511	0.059	0.0664		0.0675			0.0681			0.0587		
